The other results are listed elsewhere or left out. The full chains were built here from the parent and the listed change. Inactive controls read about 0.05.
B1: TEV protease; numbered along this chain (parent)
chain: MGESLFKGPRDYNPISSSICHLTNESDGHTTSLYGIGFGPFIITNKHLFRRNNGTLVVQSLHGVFKVKDTTTLQQHLVDGRDMIIIRMPKDFPPFPQKLKFREPQREERICLVTTNFQTKSMSSMVSDTSCTFPSGDGIFWKHWIQTKDGQCGSPLVSTRDGFIVGIHSASNFTNTNNYFTSVPKNFMELLTNQEAQQWVSGWRLNADSVLWGGHKVFMVKPEEPFQPVKEATQL

Variants of: B1
Assay: raw area under fraction-flipped curve 0-4 h after induction (AUC4h, not background-subtracted), DNA-recorder readout of cleavage of the substrate (dimensionless); higher = more cleavage of the substrate by the protease variant
Conditions: temperature: 34 °C; time window: 0-4 h after rhamnose induction
Experimental: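 In vivo DNA recorder in E. coli TOP10(DE3) ΔrhaA at 34 °C. Each TEVp single-site mutant (parent TEVp 0) is paired with a single-site variant of the 7-mer TEVs (canonical ENLYFQ|S). The substrate sits between flexible linkers in a Bxb1-sfGFP-TEVs-SsrA fusion, so cleavage stabilises Bxb1 and speeds flipping of a recombination array, read by NGS. The value is the raw area under the fraction-flipped curve over 0-4 h after rhamnose induction (AUC4h), with ≥20 reads per time point. It is not background-subtracted; inactive controls average about 0.047.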
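Note: Bxb1 expression induced with 0.2% (w/v) L-rhamnose at OD600 near 0.5, cultures sampled hourly, flipped fraction per protease–substrate barcode pair counted by paired-end Illumina sequencing.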

Q: Which “area with substrate EALYFQS” value does the source give for MGESLFKGPRDYNPISSSICHLTNESDGHTTSLYGIGFGPFIITNKHLFRRNNGTLVVSSLHGVFKVKDTTTLQQHLVDGRDMIIIRMPKDFPPFPQKLKFREPQREERICLVTTNFQTKSMSSMVSDTSCTFPSGDGIFWKHWIQTKDGQCGSPLVSTRDGFIVGIHSASNFTNTNNYFTSVPKNFMELLTNQEAQQWVSGWRLNADSVLWGGHKVFMVKPEEPFQPVKEATQL [Q59S] here?
A: 0.115

Q: And the “area with substrate EGLYFQS” value?
A: 0.0962

Q: What about the “area with substrate EILYFQS” value of the same variant?
A: 0.116

Q: And the “area with substrate EKLYFQS” value?
A: 0.106

Q: And the “area with substrate EMLYFQS” value?
A: 0.139

Q: And the “area with substrate EPLYFQS” value?
A: 0.115

Q: And the “area with substrate ESLYFQS” value?
A: 0.101

Q: What about the “area with substrate EVLYFQS” value of the same variant?
A: 0.0883

Q: What about the “area with substrate EYLYFQS” value of the same variant?
A: 0.1

Q: With MGESLFKGPRDYNPISSSICHLTNESDGHTTSLYGIGFGPFIITNKHLFRRNNGTLVVWSLHGVFKVKDTTTLQQHLVDGRDMIIIRMPKDFPPFPQKLKFREPQREERICLVTTNFQTKSMSSMVSDTSCTFPSGDGIFWKHWIQTKDGQCGSPLVSTRDGFIVGIHSASNFTNTNNYFTSVPKNFMELLTNQEAQQWVSGWRLNADSVLWGGHKVFMVKPEEPFQPVKEATQL [Q59W] as the variant, how does the “area with substrate EALYFQS” value read?
A: 0.123

Q: What about the “area with substrate ECLYFQS” value of the same variant?
A: 0.119

Q: And the “area with substrate EDLYFQS” value?
A: 0.126

Q: What about the “area with substrate EELYFQS” value of the same variant?
A: 0.108

Q: And the “area with substrate EFLYFQS” value?
A: 0.122

Q: And the “area with substrate EILYFQS” value?
A: 0.105

Q: And the “area with substrate EKLYFQS” value?
A: 0.109

Q: What about the “area with substrate ELLYFQS” value of the same variant?
A: 0.0914

Q: What about the “area with substrate EMLYFQS” value of the same variant?
A: 0.132

Q: And the “area with substrate EPLYFQS” value?
A: 0.118

Q: And the “area with substrate ESLYFQS” value?
A: 0.105

Q: And the “area with substrate EVLYFQS” value?
A: 0.1

Q: What does the source list for MGESLFKGPRDYNPISSSICHLTNESDGHTTSLYGIGFGPFIITNKHLFRRNNGTLVVQILHGVFKVKDTTTLQQHLVDGRDMIIIRMPKDFPPFPQKLKFREPQREERICLVTTNFQTKSMSSMVSDTSCTFPSGDGIFWKHWIQTKDGQCGSPLVSTRDGFIVGIHSASNFTNTNNYFTSVPKNFMELLTNQEAQQWVSGWRLNADSVLWGGHKVFMVKPEEPFQPVKEATQL [S60I]?
A: area with substrate EALYFQS: 0.0748; area with substrate ECLYFQS: 0.083; area with substrate EGLYFQS: 0.0693; area with substrate EILYFQS: 0.0666; area with substrate EQLYFQS: 0.115; area with substrate EVLYFQS: 0.0813

Q: Which “area with substrate EALYFQS” value does the source give for MGESLFKGPRDYNPISSSICHLTNESDGHTTSLYGIGFGPFIITNKHLFRRNNGTLVVQNLHGVFKVKDTTTLQQHLVDGRDMIIIRMPKDFPPFPQKLKFREPQREERICLVTTNFQTKSMSSMVSDTSCTFPSGDGIFWKHWIQTKDGQCGSPLVSTRDGFIVGIHSASNFTNTNNYFTSVPKNFMELLTNQEAQQWVSGWRLNADSVLWGGHKVFMVKPEEPFQPVKEATQL [S60N] here?
A: 0.113

Q: What about the “area with substrate ECLYFQS” value of the same variant?
A: 0.09

Q: What about the “area with substrate EDLYFQS” value of the same variant?
A: 0.106

Q: What about the “area with substrate EELYFQS” value of the same variant?
A: 0.102

Q: What about the “area with substrate EGLYFQS” value of the same variant?
A: 0.0893

Q: What about the “area with substrate EHLYFQS” value of the same variant?
A: 0.099

Q: And the “area with substrate EILYFQS” value?
A: 0.0858

Q: And the “area with substrate EKLYFQS” value?
A: 0.11

Q: What about the “area with substrate ELLYFQS” value of the same variant?
A: 0.118

Q: And the “area with substrate EMLYFQS” value?
A: 0.0956

Q: And the “area with substrate EPLYFQS” value?
A: 0.129

Q: And the “area with substrate ERLYFQS” value?
A: 0.0922

Q: And the “area with substrate ESLYFQS” value?
A: 0.119

Q: What about the “area with substrate EWLYFQS” value of the same variant?
A: 0.0898

Q: Which results are given for MGESLFKGPRDYNPISSSICHLTNESDGHTTSLYGIGFGPFIITNKHLFRRNNGTLVVQSYHGVFKVKDTTTLQQHLVDGRDMIIIRMPKDFPPFPQKLKFREPQREERICLVTTNFQTKSMSSMVSDTSCTFPSGDGIFWKHWIQTKDGQCGSPLVSTRDGFIVGIHSASNFTNTNNYFTSVPKNFMELLTNQEAQQWVSGWRLNADSVLWGGHKVFMVKPEEPFQPVKEATQL [L61Y]?
A: area with substrate EALYFQS: 0.115; area with substrate EELYFQS: 0.138; area with substrate EGLYFQS: 0.0897; area with substrate EHLYFQS: 0.0861; area with substrate EILYFQS: 0.0799; area with substrate EKLYFQS: 0.0801; area with substrate ELLYFQS: 0.0741; area with substrate EMLYFQS: 0.106; area with substrate EPLYFQS: 0.176; area with substrate EQLYFQS: 0.125; area with substrate ERLYFQS: 0.117; area with substrate ESLYFQS: 0.0954; area with substrate EVLYFQS: 0.0988; area with substrate EYLYFQS: 0.0961

Q: Which “area with substrate EALYFQS” value does the source give for MGESLFKGPRDYNPISSSICHLTNESDGHTTSLYGIGFGPFIITNKHLFRRNNGTLVVQSLGGVFKVKDTTTLQQHLVDGRDMIIIRMPKDFPPFPQKLKFREPQREERICLVTTNFQTKSMSSMVSDTSCTFPSGDGIFWKHWIQTKDGQCGSPLVSTRDGFIVGIHSASNFTNTNNYFTSVPKNFMELLTNQEAQQWVSGWRLNADSVLWGGHKVFMVKPEEPFQPVKEATQL [H62G] here?
A: 0.113

Q: And the “area with substrate ECLYFQS” value?
A: 0.143

Q: And the “area with substrate EDLYFQS” value?
A: 0.108

Q: And the “area with substrate EELYFQS” value?
A: 0.149

Q: And the “area with substrate EILYFQS” value?
A: 0.0994

Q: And the “area with substrate EKLYFQS” value?
A: 0.0844

Q: What about the “area with substrate ELLYFQS” value of the same variant?
A: 0.0869

Q: What about the “area with substrate EMLYFQS” value of the same variant?
A: 0.0992

Q: And the “area with substrate EQLYFQS” value?
A: 0.11

Q: And the “area with substrate ETLYFQS” value?
A: 0.1

Q: What about the “area with substrate EVLYFQS” value of the same variant?
A: 0.0994

Q: With MGESLFKGPRDYNPISSSICHLTNESDGHTTSLYGIGFGPFIITNKHLFRRNNGTLVVQSLPGVFKVKDTTTLQQHLVDGRDMIIIRMPKDFPPFPQKLKFREPQREERICLVTTNFQTKSMSSMVSDTSCTFPSGDGIFWKHWIQTKDGQCGSPLVSTRDGFIVGIHSASNFTNTNNYFTSVPKNFMELLTNQEAQQWVSGWRLNADSVLWGGHKVFMVKPEEPFQPVKEATQL [H62P] as the variant, how does the “area with substrate EALYFQS” value read?
A: 0.102

Q: And the “area with substrate ECLYFQS” value?
A: 0.0918

Q: What about the “area with substrate EKLYFQS” value of the same variant?
A: 0.074

Q: And the “area with substrate ELLYFQS” value?
A: 0.0681

Q: And the “area with substrate EMLYFQS” value?
A: 0.115

Q: What about the “area with substrate ETLYFQS” value of the same variant?
A: 0.11

Q: And the “area with substrate EVLYFQS” value?
A: 0.0789

Q: And the “area with substrate EWLYFQS” value?
A: 0.0821

Q: And the “area with substrate EYLYFQS” value?
A: 0.0793

Q: Which “area with substrate EALYFQS” value does the source give for MGESLFKGPRDYNPISSSICHLTNESDGHTTSLYGIGFGPFIITNKHLFRRNNGTLVVQSLQGVFKVKDTTTLQQHLVDGRDMIIIRMPKDFPPFPQKLKFREPQREERICLVTTNFQTKSMSSMVSDTSCTFPSGDGIFWKHWIQTKDGQCGSPLVSTRDGFIVGIHSASNFTNTNNYFTSVPKNFMELLTNQEAQQWVSGWRLNADSVLWGGHKVFMVKPEEPFQPVKEATQL [H62Q] here?
A: 0.0934

Q: What about the “area with substrate ECLYFQS” value of the same variant?
A: 0.0817

Q: And the “area with substrate EDLYFQS” value?
A: 0.129

Q: And the “area with substrate EGLYFQS” value?
A: 0.1

Q: And the “area with substrate EILYFQS” value?
A: 0.0834

Q: And the “area with substrate EKLYFQS” value?
A: 0.0738

Q: What about the “area with substrate EVLYFQS” value of the same variant?
A: 0.0823

Q: And the “area with substrate EWLYFQS” value?
A: 0.0979

Q: What about the “area with substrate EYLYFQS” value of the same variant?
A: 0.115

Q: With MGESLFKGPRDYNPISSSICHLTNESDGHTTSLYGIGFGPFIITNKHLFRRNNGTLVVQSLTGVFKVKDTTTLQQHLVDGRDMIIIRMPKDFPPFPQKLKFREPQREERICLVTTNFQTKSMSSMVSDTSCTFPSGDGIFWKHWIQTKDGQCGSPLVSTRDGFIVGIHSASNFTNTNNYFTSVPKNFMELLTNQEAQQWVSGWRLNADSVLWGGHKVFMVKPEEPFQPVKEATQL [H62T] as the variant, how does the “area with substrate EALYFQS” value read?
A: 0.113

Q: What about the “area with substrate ECLYFQS” value of the same variant?
A: 0.1

Q: And the “area with substrate EDLYFQS” value?
A: 0.0921

Q: What about the “area with substrate EELYFQS” value of the same variant?
A: 0.112

Q: And the “area with substrate EFLYFQS” value?
A: 0.103

Q: What about the “area with substrate EHLYFQS” value of the same variant?
A: 0.102

Q: What about the “area with substrate EKLYFQS” value of the same variant?
A: 0.106

Q: What about the “area with substrate ELLYFQS” value of the same variant?
A: 0.0886

Q: And the “area with substrate EQLYFQS” value?
A: 0.089

Q: What about the “area with substrate ERLYFQS” value of the same variant?
A: 0.0908

Q: What about the “area with substrate ESLYFQS” value of the same variant?
A: 0.103

Q: And the “area with substrate ETLYFQS” value?
A: 0.0966

Q: And the “area with substrate EWLYFQS” value?
A: 0.0935
